# In all, about 33,000 sequences were measured (“E-score (-0.5 to 0.5)”: median about -0.01, highest 2% from about 0.26 on). The list shows a part of the results.
# Target: Ste12 (UniProt P13574)
# Test: PBM E-score (8-mer binding enrichment) (E-score (-0.5 to 0.5)); higher = stronger / more preferred TF binding; most listed sequences are background and not binding sites
# Conditions: protein concentration: 200 nM; construct: GST-DNA-binding domain
# In short: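 Universal all-10-mer Agilent arrays, double-stranded by primer extension on fresh or once-stripped slides, were probed with about 100-200 nM GST-tagged yeast transcription factors made by PURExpress. Fluorescent anti-GST detected bound protein, and masliner normalised the scans. E-scores from the Universal PBM Analysis Suite were given to each ungapped eight-base word pooled with its reverse complement.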
row,Sequence,PBM E-score
1,GCGAGTCA,-0.157
2,CGCAACTC,0.135
3,ACCCAGGT,-0.218
4,AGGTTAGG,0.115
5,AACAAAAA,0.332
6,ACGGAAAT,0.106
7,GAACGCAA,-0.0729
8,ACTGCGTC,-0.0948
9,ATCGTCGG,0.00187
10,ACTCGTTC,-0.13
11,CTTGCGAA,0.198
12,GTTCCAGA,0.113
13,ATTCAATC,0.126
14,CGTTGATA,0.206
15,GGGCCAAA,-0.14
16,CACTGTGG,-0.234
17,GCACATCA,-0.00042
18,TAGACTAA,-0.0441
19,AGGAGATG,-0.18
20,GCAGCAGC,-0.0451
21,ACGTACAG,-0.205
22,ACGACGCG,0.0557
23,GGTCAATA,-0.0181
24,ATGGTTCG,0.143
25,GAAGGTCC,-0.191

row,Sequence,PBM E-score
1,ACACCTGG,-0.161
2,CGATGGGA,0.0287
3,CCAGGGAA,-0.16
4,GTGTCACA,0.202
5,TGGGTTAA,-0.0775
6,ACGTTACC,-0.0815
7,CTGGATAA,0.0623
8,ACTTATGA,0.0883
9,GCTTTTTA,0.271
10,ACGTGAGA,-0.0631
11,AAAGGTCC,-0.198
12,ACCTTGGA,-0.197
13,AGAGAGTG,-0.213
14,GTTCGATA,0.159
15,TAAGTCGA,-0.142
16,ATCCGGGC,-0.0865
17,AATCCCCG,0.00156
18,AGGCCCCC,-0.0988
19,AGGACGTG,-0.141
20,GTTCTCGA,0.0691
21,AATTAATT,0.254
22,CTAGTGTC,-0.0674
23,ACCACGCA,-0.0963
24,CATACGCC,0.133
25,AGTGACTC,0.0699

row,Sequence,PBM E-score
1,AGTTCTAA,0.00942
2,AAACCATC,0.21
3,AACCGACG,0.0156
4,CCCCAATA,-0.0357
5,GAGTTGGC,0.063
6,CCGGAAGA,-0.00316
7,AGTAAGGC,-0.0367
8,ATGAAGTG,-0.076
9,GTAACCGA,0.0926
10,ATCAGTGC,-0.0897
11,CTGAGAGA,0.0435
12,GTAATTCA,0.0809
13,GCCATGAC,-0.198
14,AAAAGCGT,0.172
15,AAGCTATC,0.00456
16,ATGTACGA,0.078
17,CAGGAACG,-0.13
18,CGACAGGC,-0.217
19,ACGGGTAG,-0.147
20,ACCTCCAG,-0.121
21,AGATAACT,-0.0232
22,ATTTGCCA,-0.0114
23,CATATGCC,-0.0307
24,GCGGATCA,-0.0389
25,TCTCACCA,0.109

row,Sequence,PBM E-score
1,GGAGCACA,-0.0676
2,AGCGCTCC,-0.0715
3,ATGGTGTA,0.0284
4,GGTGCGTA,0.0525
5,AAAATTTG,0.0212
6,AACACGCG,-0.0168
7,AGCGTAAA,0.109
8,CAAAAATC,0.123
9,ATGCTAAA,-0.0542
10,CCACAGCA,-0.124
11,ACCGCAAT,0.0783
12,CATCTTGC,0.0597
13,AGAGACAC,-0.233
14,ACGTAAAT,-0.0316
15,GCGAACCC,-0.0433
16,AGAAAACT,0.0911
17,ACGGACCC,-0.206
18,AATGTCGT,-0.0149
19,GGCCGCAA,-0.00535
20,CGAACGTA,-0.126
21,CCATGTCC,-0.137
22,CTGGGTCC,-0.24
23,GCAGCACC,-0.0974
24,ACACTAAA,0.232
25,AGCGCGTC,-0.0575

row,Sequence,PBM E-score
1,ACTTCCTA,-0.00834
2,CGTTAGAA,0.0681
3,CTCTGTCC,-0.0996
4,CATCACGA,0.00284
5,ATACATTC,0.0057
6,CTAGGCAA,-0.0255
7,GACTTGCC,-0.305
8,AATGACAG,-0.0643
9,ACAAGAGA,0.0763
10,AATGACTC,-0.12
11,GTAACTAA,0.207
12,CGGGTGCA,0.0453
13,CAGTGGGC,-0.199
14,CAATGGCC,-0.23
15,GACATCAC,-0.0278
16,CCCCTGCA,-0.23
17,CGGTGCTA,-0.00742
18,CATCTAAC,0.0284
19,CAAACGCA,-0.133
20,CATTGGAG,-0.0248
21,CATATTGA,0.144
22,AGCCCGGA,-0.0966
23,ATCGCACA,0.0146
24,GCGCATGA,-0.0436
25,CATGCACA,0.0615

row,Sequence,PBM E-score
1,GGGACTTA,0.0129
2,CTACGAAG,-0.183
3,CAACCCTG,0.141
4,ACCTACGT,-0.0687
5,GGATTGTA,-0.00568
6,ACGGCGCC,-0.0365
7,CCTCTCGA,-0.0789
8,ATGCTCTG,-0.118
9,AGCATCCG,-0.0876
10,CAATGTTC,-0.0592
11,AACGTGGG,-0.0675
12,ACAGCGAG,-0.00798
13,CCACGTGA,0.0289
14,TGATTTAA,0.266
15,AAAGTCTC,-0.0993
16,GCAATTGC,0.0356
17,AACCTTAA,0.21
18,GGGGCTAA,-0.0575
19,GGGTGCTA,-0.0769
20,ATATAGGC,0.00416
21,ACCGAAAA,0.195
22,CAACAAGC,0.0511
23,AGGGATTG,-0.13
24,GCGCGGTA,0.118
25,ACACTACC,-0.182

row,Sequence,PBM E-score
1,TACCTCCA,-0.0791
2,AGTGCTAA,-0.141
3,GTCAGCCA,-0.203
4,ACCGATCG,-0.00536
5,AGTCATAT,0.211
6,CGACAGGA,0.0149
7,AAGCTTAG,0.0097
8,TCTGAGCA,-0.00914
9,ACCCTATC,-0.0474
10,GAGACGTA,0.107
11,ATTTGGAG,-0.0778
12,ACATTAAA,0.196
13,CCTGTATA,0.0858
14,CGTACTCC,-0.218
15,CCTATTTC,0.0874
16,GAGGCTGC,0.00926
17,CGAGCCCC,-0.121
18,GACTACCA,-0.2
19,CCGGGTAA,0.0682
20,CACTCTGA,0.0155
21,CAGTTCGA,-0.0542
22,ATTGTTGG,0.19

# From the supplement of paper PMC3334620
